# Reference: the supplement of paper PMC3334620
# Whole data set: some 33,000 sequences, median “E-score (-0.5 to 0.5)” near -0.054, cut for the highest 2% near 0.35. Some of the results follow.
# Target: T1, Stb5 (UniProt P38699)
# T1 sequence: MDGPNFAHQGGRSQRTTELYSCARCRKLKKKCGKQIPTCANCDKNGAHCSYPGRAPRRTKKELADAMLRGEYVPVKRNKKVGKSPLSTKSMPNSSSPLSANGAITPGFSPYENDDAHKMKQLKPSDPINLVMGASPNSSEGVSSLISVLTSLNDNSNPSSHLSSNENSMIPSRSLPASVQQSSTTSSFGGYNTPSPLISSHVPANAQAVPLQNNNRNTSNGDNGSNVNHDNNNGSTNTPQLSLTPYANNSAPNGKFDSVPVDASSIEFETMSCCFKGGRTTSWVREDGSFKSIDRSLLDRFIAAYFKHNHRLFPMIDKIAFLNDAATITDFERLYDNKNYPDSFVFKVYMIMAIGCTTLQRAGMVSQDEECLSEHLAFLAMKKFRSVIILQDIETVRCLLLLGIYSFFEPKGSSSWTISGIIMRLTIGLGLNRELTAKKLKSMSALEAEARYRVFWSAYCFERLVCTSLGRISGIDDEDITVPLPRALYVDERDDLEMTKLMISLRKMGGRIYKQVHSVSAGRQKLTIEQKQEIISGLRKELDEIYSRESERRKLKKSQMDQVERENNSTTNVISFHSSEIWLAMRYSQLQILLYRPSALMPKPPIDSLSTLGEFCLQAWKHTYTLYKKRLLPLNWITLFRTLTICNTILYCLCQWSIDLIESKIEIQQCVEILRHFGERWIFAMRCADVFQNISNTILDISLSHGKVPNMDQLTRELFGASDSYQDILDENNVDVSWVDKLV
# Assay: PBM E-score (8-mer binding enrichment) (E-score (-0.5 to 0.5)); higher = stronger / more preferred TF binding; most listed sequences are background and not binding sites
# Conditions: protein concentration: 200 nM; construct: GST-full length
# Summary of the method: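 Yeast transcription factors, full-length or as DNA-binding domains, were expressed with a GST tag using PURExpress in vitro transcription/translation. At about 100-200 nM they were applied to universal all-10-mer Agilent arrays, double-stranded by primer extension on fresh or once-stripped slides. Fluorescent anti-GST detected bound protein, and masliner normalised the scans. E-scores for ungapped eight-base words, pooled with reverse complements, came from the Universal PBM Analysis Suite.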
row,Sequence,PBM E-score
1,AGCGCTTG,-0.015
2,ATATGGAA,-0.0664
3,CGTCAAAA,0.0912
4,GGCGGTGA,0.376
5,ACCTTTAC,-0.102
6,ACGGCTAA,-0.0965
7,GCAGTCGA,-0.0782
8,TAACTTAA,0.106
9,CGCGCCCA,0.0207
10,TATCAACA,-0.0751
11,AACAGTGC,-0.0925
12,GAGACAAA,0.0115
13,CTTAATAA,0.14
14,GAAATAAC,0.216
15,CACGAGTG,-0.21
16,ACAGAAAG,-0.00441
17,AGAGTGTC,-0.0617
18,CTCAAAGA,-0.152
19,ATATGCAT,-0.0954
20,GTATAGTA,-0.00023
21,AGCACATG,-0.193
22,CAGGTCCC,-0.0877

row,Sequence,PBM E-score
1,GGATGCAC,-0.151
2,GCCGGCAC,0.334
3,ATTCGAAA,-0.017
4,AGTTGGTC,-0.156
5,GGGGCCAC,0.0261
6,CAACAGCG,0.135
7,CGGAGGAG,0.0736
8,AACGCCCT,-0.24
9,ACGCTCGG,0.229
10,CTTAAGTC,0.0934
11,GAGGGACC,-0.108
12,CAAATCGC,0.00562
13,AAAACGAT,-0.265
14,CAAGGAGA,-0.129
15,ATTATACA,0.0217
16,CCGAACCG,0.23
17,AGCGACAT,-0.161
18,CGCAATAA,0.213
19,CATAACGA,-0.00123
20,TAGTGCAA,-0.157
21,CTTGCGGA,0.144
22,ATGTGTGC,-0.0139

row,Sequence,PBM E-score
1,ATCTAAGA,-0.138
2,ACGTAACA,-0.0542
3,AAGGGAAC,-0.11
4,ACGGCCGT,0.226
5,GGACCGAA,0.184
6,ATGACAGA,-0.202
7,ATTACAGG,0.191
8,ACATATAA,0.199
9,AACTACGT,-0.0171
10,GTTAGCCA,0.0305
11,TGATGAAA,-0.29
12,GCAGGAAA,-0.0516
13,CGAAGAAC,-0.0324
14,AATTAGTA,-0.0825
15,AGTCTCTA,-0.346
16,CCGGTAGC,0.195
17,CTCAGTTA,0.0258
18,CTCTCTCC,-0.133
19,CGGTCGAG,-0.063
20,GTGCGAGA,-0.195
21,CTCCCTGC,-0.209
22,ATTGCACG,0.00253

row,Sequence,PBM E-score
1,ACACCTCG,0.0552
2,GAGGACGA,-0.163
3,TGAGACAA,-0.0999
4,AAGGCACT,-0.126
5,ATGCGGTG,0.283
6,CCTTGAAA,-0.117
7,GAACCATA,0.0655
8,ATAAGCAA,-0.156
9,TGAGTACA,-0.126
10,CCCTATGA,-0.0317
11,CCATTGCG,0.116
12,TCATTGGA,-0.116
13,CTCATTAA,-0.134
14,TACAACTA,-0.155
15,AGCAGCAC,-0.34
16,ATGAAACA,-0.0687
17,CTGTCGTC,-0.199
18,AGGGGTCG,-0.178
19,CTGCTGAA,-0.298
20,GACCAGCC,0.00138
